Measurements reported in PubChem BioAssay AID504333 (National Center for Advancing Translational Sciences (NCATS), 2011).
The whole screen tested about 360,000 compounds, of which about 16,000 (4.4%) were called active. This list was built around the results that the source calls inconclusive (neither active nor inactive); the mix of calls is not that of the screen. The call rests on the fitted dose curve; in most records, active means well fitted inhibition curve with a large enough effect; inconclusive means small, poorly fitted or top-dose-only effect; inactive means no such curve, though single readings can be large or run the other way. A potency beside an inconclusive call is a rough fit, not a confirmed value.

Target: Bromodomain adjacent to zinc finger domain protein 2B (Homo sapiens) (UniProt Q9UIF8)
Chain of UniProt Q9UIF8 (Q9UIF8 whole entry, looked up, the tested form may be a part): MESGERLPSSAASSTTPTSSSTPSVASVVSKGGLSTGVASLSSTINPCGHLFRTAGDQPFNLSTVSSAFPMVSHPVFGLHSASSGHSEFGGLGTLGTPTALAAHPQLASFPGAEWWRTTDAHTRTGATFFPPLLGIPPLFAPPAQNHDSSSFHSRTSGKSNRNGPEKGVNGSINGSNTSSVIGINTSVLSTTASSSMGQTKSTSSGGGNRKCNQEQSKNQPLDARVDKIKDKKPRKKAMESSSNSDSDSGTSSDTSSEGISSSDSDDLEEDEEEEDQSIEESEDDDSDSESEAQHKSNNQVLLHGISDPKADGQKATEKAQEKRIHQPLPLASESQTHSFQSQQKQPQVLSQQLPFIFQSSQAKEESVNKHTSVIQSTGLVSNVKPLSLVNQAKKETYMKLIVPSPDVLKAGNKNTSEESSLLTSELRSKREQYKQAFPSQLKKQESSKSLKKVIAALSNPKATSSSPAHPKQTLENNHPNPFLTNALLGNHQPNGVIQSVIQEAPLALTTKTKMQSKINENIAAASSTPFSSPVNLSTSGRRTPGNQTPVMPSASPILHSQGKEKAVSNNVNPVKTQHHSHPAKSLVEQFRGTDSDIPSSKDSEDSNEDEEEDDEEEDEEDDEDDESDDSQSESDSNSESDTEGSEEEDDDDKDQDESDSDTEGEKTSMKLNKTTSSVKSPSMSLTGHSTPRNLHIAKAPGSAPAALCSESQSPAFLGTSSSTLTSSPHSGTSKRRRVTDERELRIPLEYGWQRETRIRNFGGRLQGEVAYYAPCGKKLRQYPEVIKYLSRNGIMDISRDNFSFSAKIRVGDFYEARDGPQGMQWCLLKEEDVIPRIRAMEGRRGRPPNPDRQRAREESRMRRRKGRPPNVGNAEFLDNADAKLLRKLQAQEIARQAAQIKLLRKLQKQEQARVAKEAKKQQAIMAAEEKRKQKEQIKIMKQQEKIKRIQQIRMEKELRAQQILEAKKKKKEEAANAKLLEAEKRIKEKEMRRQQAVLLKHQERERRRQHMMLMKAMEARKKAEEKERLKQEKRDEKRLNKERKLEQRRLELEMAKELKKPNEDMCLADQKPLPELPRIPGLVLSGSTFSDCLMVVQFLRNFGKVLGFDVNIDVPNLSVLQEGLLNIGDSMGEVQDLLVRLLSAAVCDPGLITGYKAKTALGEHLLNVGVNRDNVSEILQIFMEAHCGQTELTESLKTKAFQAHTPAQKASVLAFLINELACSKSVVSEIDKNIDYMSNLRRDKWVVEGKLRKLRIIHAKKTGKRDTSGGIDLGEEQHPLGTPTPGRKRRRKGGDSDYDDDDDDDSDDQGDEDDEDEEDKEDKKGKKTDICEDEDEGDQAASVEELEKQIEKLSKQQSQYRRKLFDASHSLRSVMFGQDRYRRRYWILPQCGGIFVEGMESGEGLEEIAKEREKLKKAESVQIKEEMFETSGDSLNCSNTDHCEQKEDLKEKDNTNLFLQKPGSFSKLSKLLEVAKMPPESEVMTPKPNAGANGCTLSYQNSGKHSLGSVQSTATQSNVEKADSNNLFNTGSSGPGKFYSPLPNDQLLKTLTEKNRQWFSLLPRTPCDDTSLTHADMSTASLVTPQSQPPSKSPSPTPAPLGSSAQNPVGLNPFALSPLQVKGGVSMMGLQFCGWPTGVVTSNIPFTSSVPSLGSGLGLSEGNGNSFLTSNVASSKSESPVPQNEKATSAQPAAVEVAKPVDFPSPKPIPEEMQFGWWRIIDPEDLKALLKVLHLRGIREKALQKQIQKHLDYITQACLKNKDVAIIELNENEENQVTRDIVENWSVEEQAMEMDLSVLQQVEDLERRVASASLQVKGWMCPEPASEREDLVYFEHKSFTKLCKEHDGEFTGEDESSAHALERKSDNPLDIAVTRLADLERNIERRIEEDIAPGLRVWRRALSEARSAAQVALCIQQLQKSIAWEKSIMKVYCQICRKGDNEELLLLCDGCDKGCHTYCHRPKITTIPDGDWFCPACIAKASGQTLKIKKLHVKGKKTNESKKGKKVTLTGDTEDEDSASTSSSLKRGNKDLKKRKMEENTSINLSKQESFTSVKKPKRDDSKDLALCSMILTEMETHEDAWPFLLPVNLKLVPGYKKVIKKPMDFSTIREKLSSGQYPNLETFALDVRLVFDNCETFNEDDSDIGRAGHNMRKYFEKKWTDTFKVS
Test: qHTS Assay for Inhibitors of BAZ2B; further: nearly all actives have a fitted effect of over 60% in size
Conditions: AlphaScreen BAZ2B-H3K14Ac peptide displacement; activity change, negative = inhibition: at 114 µM (top of the series)
Method in brief: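 Protein-peptide AlphaScreen: BAZ2B 50 nM, b-H3K14Ac 50 nM, 1x PBS pH 7.4 + 0.01% Tween-20. Preincubation 30 min RT; cpd 30 min RT (top 110 uM); beads 20 min RT, light-protected.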
On the % scale 0 is the no-effect control and ±100 the full control effect; potency means the concentration at half of the fitted maximal effect; tags describe the fitted curve by direction and shape.

| Compound | Potency | activity change, negative = inhibition |
| --- | --- | --- |
| Cn1nccc1C(=O)N1CCc2c([nH]c3ccccc23)C1c1ccc(F)cc1 (configuration not stated) | inconclusive: 11.2 µM [inhibitor, partial curve] |  |
| COc1ccc(N2CCN(C(C)C(=O)Nc3nnc(C)s3)CC2)cc1 (configuration not stated) |  | inactive: -15.6% |
| COc1ccc(OCC(=O)Nc2nc3c(s2)CCCC3)cc1 | inconclusive: 50.1 µM [inhibitor, partial curve] |  |
| Cc1ccc(CCNC(=O)CCc2cn(Cc3ccccc3C)c3ccccc23)cc1 |  | inactive: -14% |
| O=C(N/N=C/c1ccco1)c1ccc(NC(=O)C2CCCCC2)cc1 |  | inactive: -25.8% |
| CC1S/C(=N/N=C/c2cccc([N+](=O)[O-])c2)NC1=O (configuration not stated) | inconclusive: 31.6 µM [inhibitor, partial curve] |  |
| COc1ccccc1Nc1c2c(nc3ccc(NC(=O)/C=C/c4cccc(OC)c4OC)cc13)CCCC2 | inconclusive: 8.91 µM [inhibitor, full curve, poor fit] |  |
| Cc1ccc(Nc2c3c(nc4nncn24)CCC3)cc1 |  | inactive: -1.17% |
| COc1cc(OC)c(NC(c2nnc(-c3ccccc3)o2)c2ccc(F)cc2Cl)cc1Cl (configuration not stated) | inconclusive: 10 µM [inhibitor, full curve] |  |
| COc1ccccc1Nc1nc(-c2cccnc2)cs1 |  | inconclusive: -57.2% [inhibitor] |
| CCc1ccccc1OCCCCN1CCCC1 | inconclusive: 89.1 µM [inhibitor, single point] |  |
| COc1cc(CNc2ccc3c(c2)CCC3)cc(OC)c1O | active: 39.8 µM |  |
| COc1ccc(CCNC(=O)c2ccc3c(c2)N(Cc2cccc(C)c2)C(=O)c2ccccc2S3(=O)=O)cc1OC | inconclusive: 31.6 µM [inhibitor, single point] |  |
| COc1ccc(CNCCSc2nnnn2-c2ccccc2)cc1 | inconclusive: 89.1 µM [inhibitor, single point] |  |
| O=C(CNCCO)N1N=C(c2cccs2)CC1c1cccs1 (configuration not stated) | inconclusive: 89.1 µM [inhibitor, single point] |  |
| COc1ccc(CC(=O)Nc2ccc3nc(Nc4cccc(Cl)c4)cc(C)c3c2)cc1OC |  | inactive: 1.64% |
| CCc1ccc2c(c1)c1nnc(NN)nc1n2CC | inconclusive: 89.1 µM [inhibitor, single point] |  |
| COc1cc2c(cc1OC)C1=C(C#N)CN(C3CCCCC3)CN1CC2 | inconclusive: 89.1 µM [inhibitor, single point] |  |
| CCc1c(C)nc2cc(-c3cccc(Br)c3)[nH]n2c1=O | inconclusive: 89.1 µM [inhibitor, single point] |  |
| C=CS(=O)(=O)c1sc(Cl)c(N2CCOCC2)c1[N+](=O)[O-] | inconclusive: 39.8 µM [inhibitor, partial curve] |  |
| O=c1cc(CN2CCN(Cc3ccccc3)CC2)c2ccc(O)c(O)c2o1 | active: 39.8 µM |  |
| Cc1cc(Cl)c(OCCCSc2nc(C)cc(=O)[nH]2)c(Br)c1 |  | inactive: -0.444% |
| O=C(NC1=NCCS1)c1ccc(-c2ccc(Cl)cc2)o1 | inconclusive: 79.4 µM [inhibitor, single point] |  |
| COc1ccccc1CCNC(=O)c1ccc2c(c1)c(C)c(C)n2C | inconclusive: 44.7 µM [inhibitor, partial curve] |  |

| Compound | Potency | activity change, negative = inhibition |
| --- | --- | --- |
| COc1ccc(NC(=O)CSc2ncc(-c3ccc(Cl)cc3)[nH]2)cc1OC | inconclusive: 89.1 µM [inhibitor, single point] |  |
| CN(CCc1ccccn1)S(=O)(=O)c1ccc(F)cc1 | active: 44.7 µM |  |
| COC(=O)Nc1ccc(S(=O)(=O)N2CCC(C(=O)NC3CCCCC3)CC2)cc1 |  | inactive: -11.3% |
| O=c1n(-c2ccccc2)c(=O)n2n1CC(O)C2 | inconclusive: 89.1 µM [inhibitor, single point] |  |
| C[N+]1(CC(=O)OCCCc2ccccc2)CCOCC1 | active: 44.7 µM |  |
| Cc1sc2nc(C)n(/N=C/c3ccccc3O)c(=O)c2c1C | inconclusive: 89.1 µM [inhibitor, single point] |  |
| O=C(COC(=O)/C=C/c1cccc(C(F)(F)F)c1)NC1CCCCCC1 |  | inactive: 2.99% |
| O=[N+]([O-])c1ccc(Oc2cccc3cccnc23)c([N+](=O)[O-])c1 | inconclusive: 50.1 µM [inhibitor, partial curve] |  |
| Cc1cc(C)n2nc(SCC(=O)c3cc(C)n(-c4cc(C)on4)c3C)nc2n1 | inconclusive: 79.4 µM [inhibitor, single point] |  |
| Cc1ccc(S(=O)(=O)N2CCOCC2)cc1NC(=O)CSc1nc2ccccc2c(=O)n1Cc1ccccc1 |  | inactive: -0.308% |
| COc1ccc(-c2cn(CCC(=O)NCc3ccc(C)cc3)c(CCN)n2)cc1 | inconclusive: 89.1 µM [inhibitor, single point] |  |
| Cc1csc2nc(O)c(C(=O)NCc3ccc4c(c3)OCO4)c(=O)n12 | inconclusive: 50.1 µM [inhibitor, partial curve] |  |
| Cc1ccccc1NC(=S)NCc1ccc2[nH]c3c(c2c1)CCCC3 | active: 39.8 µM |  |
| Cn1c(=O)c2c(SCC(=O)Nc3nccs3)nc(C3CC3)nc2n(C)c1=O |  | inactive: -12.4% |
| COc1ccc(S(=O)(=O)N(CC(=O)NCC2CCCO2)Cc2ccccc2)cc1C (configuration not stated) |  | inactive: 0.531% |
| Cc1ccccc1C(=O)Nc1nnc(-c2ccc(F)cc2)o1 | inconclusive: 89.1 µM [inhibitor, single point] |  |
| Cc1ccccc1OCCCC(=O)Nc1ccc2c(c1)OCO2 |  | inactive: -9.27% |
| Cc1noc(NS(=O)(=O)c2ccc(N/C=C/C(=O)c3ccccc3)cc2)c1C | inconclusive: 89.1 µM [inhibitor, single point] |  |
| CCN(C(=O)COc1ccccc1)C1CCCCC1 | inconclusive: 89.1 µM [inhibitor, single point] |  |
| O=C(NC(=S)N1CCCC1)c1ccccc1Cl |  | inactive: -14% |
| Cc1ccc(-c2ccc(/C=N/N3C(=O)C4C5C=CC(C6CC56)C4C3=O)o2)c([N+](=O)[O-])c1 (configuration not stated) | inconclusive: 35.5 µM [inhibitor, partial curve] |  |
| O=C(/C(N=Nc1cccc([N+](=O)[O-])c1)=C(/O)c1ccc(Br)cc1)C(F)(F)F | active: 25.1 µM |  |
| Cc1ccc(-c2c3c([nH]c(=S)c2C#N)CCCC3)o1 | active: 50.1 µM |  |
